{
  "source": "the supplement of paper PMC3334620",
  "note": "Whole data set: some 33,000 sequences, median “E-score (-0.5 to 0.5)” near -0.016, cut for the highest 2% near 0.32. This is one part of the list.",
  "data": [
    {"target": "T1, Stp1 (UniProt B3LFK1)", "T1 sequence": "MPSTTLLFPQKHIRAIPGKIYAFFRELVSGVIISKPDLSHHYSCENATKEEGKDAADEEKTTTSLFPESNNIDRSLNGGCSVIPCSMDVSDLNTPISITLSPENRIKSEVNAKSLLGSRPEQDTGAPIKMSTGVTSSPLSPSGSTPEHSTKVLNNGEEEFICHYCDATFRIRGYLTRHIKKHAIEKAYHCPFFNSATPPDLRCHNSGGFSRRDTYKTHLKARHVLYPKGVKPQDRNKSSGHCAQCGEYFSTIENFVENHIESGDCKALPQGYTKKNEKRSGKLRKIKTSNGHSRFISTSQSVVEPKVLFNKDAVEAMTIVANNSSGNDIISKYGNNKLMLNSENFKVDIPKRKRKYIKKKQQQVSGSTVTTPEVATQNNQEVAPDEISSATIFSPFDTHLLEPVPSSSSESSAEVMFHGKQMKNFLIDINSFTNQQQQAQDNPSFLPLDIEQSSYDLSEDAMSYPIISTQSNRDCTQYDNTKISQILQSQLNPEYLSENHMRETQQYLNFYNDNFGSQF", "experiment": "PBM E-score (8-mer binding enrichment) (E-score (-0.5 to 0.5)); higher = stronger / more preferred TF binding; most listed sequences are background and not binding sites", "conditions": "protein concentration: 200 nM; construct: GST-full length", "summary_of_the_method": "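Yeast transcription factors carrying a GST tag, as full-length proteins or DNA-binding domains, were produced by PURExpress in vitro transcription/translation. About 100-200 nM protein was applied to universal all-10-mer Agilent arrays, double-stranded by primer extension on fresh or once-stripped slides. Bound protein was detected with fluorescent anti-GST, and scans were normalised with masliner. The Universal PBM Analysis Suite gave each ungapped eight-base word, pooled with its reverse complement, an E-score, a modified Wilcoxon-Mann-Whitney statistic.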", "values": [
      {"sequence": "ATAAGAGA", "PBM E-score": 0.132},
      {"sequence": "AACTTCAA", "PBM E-score": 0.0846},
      {"sequence": "CTACGCGA", "PBM E-score": -0.119},
      {"sequence": "ATAAAACC", "PBM E-score": 0.035},
      {"sequence": "CATGACAG", "PBM E-score": -0.0444},
      {"sequence": "ATACATAG", "PBM E-score": 0.0689},
      {"sequence": "CATCGCAA", "PBM E-score": -0.0548},
      {"sequence": "ACCTTCGA", "PBM E-score": -0.0752},
      {"sequence": "GGACAACA", "PBM E-score": 0.0294},
      {"sequence": "ACACGACT", "PBM E-score": -0.11},
      {"sequence": "GAACCTGA", "PBM E-score": -0.106},
      {"sequence": "CAGCTTAA", "PBM E-score": -0.0511},
      {"sequence": "GGAAAGTA", "PBM E-score": 0.00343},
      {"sequence": "CCCGTCAG", "PBM E-score": -0.322},
      {"sequence": "AACTGTGA", "PBM E-score": 0.131},
      {"sequence": "ACCCCTCA", "PBM E-score": -0.347},
      {"sequence": "TGACAAAA", "PBM E-score": 0.138},
      {"sequence": "TGCGCCCA", "PBM E-score": -0.00186},
      {"sequence": "TCACGGGA", "PBM E-score": 0.0905},
      {"sequence": "AGATACAT", "PBM E-score": 0.121},
      {"sequence": "GGAGGTCA", "PBM E-score": -0.123},
      {"sequence": "AGGACCAT", "PBM E-score": -0.113},
      {"sequence": "CATTAATC", "PBM E-score": 0.0853},
      {"sequence": "AAACATAC", "PBM E-score": 0.067},
      {"sequence": "AGTCCTAC", "PBM E-score": -0.0585},
      {"sequence": "GATCATAA", "PBM E-score": 0.0789},
      {"sequence": "ATGCGATC", "PBM E-score": -0.156},
      {"sequence": "CCTACGGC", "PBM E-score": 0.39},
      {"sequence": "CACGACTG", "PBM E-score": -0.193},
      {"sequence": "TCGCGGCA", "PBM E-score": 0.346},
      {"sequence": "ACCGTTGC", "PBM E-score": -0.132},
      {"sequence": "TACGGTCA", "PBM E-score": -0.00514},
      {"sequence": "AGGTTGCG", "PBM E-score": -0.138},
      {"sequence": "CGAGCTAC", "PBM E-score": -0.21},
      {"sequence": "CATAAGAA", "PBM E-score": 0.144},
      {"sequence": "GGAGCCTA", "PBM E-score": 0.0295},
      {"sequence": "GAGGCGCA", "PBM E-score": 0.338},
      {"sequence": "GTATAAAC", "PBM E-score": 0.203},
      {"sequence": "AAGTGCGC", "PBM E-score": 0.0718},
      {"sequence": "TAAATGGA", "PBM E-score": -0.0135},
      {"sequence": "GAAGACCC", "PBM E-score": -0.326},
      {"sequence": "CCCAAATA", "PBM E-score": -0.153},
      {"sequence": "CTAATAGC", "PBM E-score": 0.00844},
      {"sequence": "AAATAGGC", "PBM E-score": 0.129},
      {"sequence": "ATGTCAAG", "PBM E-score": -0.095},
      {"sequence": "AGTATGGG", "PBM E-score": -0.147},
      {"sequence": "ACCATACT", "PBM E-score": -0.121},
      {"sequence": "CGACTCCC", "PBM E-score": -0.209},
      {"sequence": "TACCTTGA", "PBM E-score": -0.0177},
      {"sequence": "AATTATAA", "PBM E-score": 0.118},
      {"sequence": "ATACCGAT", "PBM E-score": -0.0441},
      {"sequence": "TAAGAAGA", "PBM E-score": 0.149},
      {"sequence": "AAAGATGC", "PBM E-score": 0.164},
      {"sequence": "ATGAAAGG", "PBM E-score": 0.033},
      {"sequence": "CCACGCAG", "PBM E-score": -0.0441},
      {"sequence": "GCGAACCA", "PBM E-score": -0.0941},
      {"sequence": "TCTACACA", "PBM E-score": -0.00471},
      {"sequence": "AAAACCCC", "PBM E-score": -0.139},
      {"sequence": "GCGGTTTA", "PBM E-score": 0.156},
      {"sequence": "ATGCGATA", "PBM E-score": 0.105},
      {"sequence": "ATGCGAGG", "PBM E-score": 0.144},
      {"sequence": "AATCCTAG", "PBM E-score": -0.0474},
      {"sequence": "GCCTTGAA", "PBM E-score": -0.111},
      {"sequence": "CCCGCAGA", "PBM E-score": 0.06},
      {"sequence": "TCCCCCCA", "PBM E-score": -0.372},
      {"sequence": "CAAATGAA", "PBM E-score": 0.17},
      {"sequence": "AGCCACGC", "PBM E-score": -0.00665},
      {"sequence": "CAAGGGCC", "PBM E-score": -0.169},
      {"sequence": "AAGTTCCA", "PBM E-score": -0.0474},
      {"sequence": "ATAGTTTG", "PBM E-score": 0.121},
      {"sequence": "CCGCGACC", "PBM E-score": -0.0636},
      {"sequence": "GAGGCTCC", "PBM E-score": 0.149},
      {"sequence": "TAAAGTTA", "PBM E-score": 0.0724},
      {"sequence": "AAATTGCC", "PBM E-score": 0.245},
      {"sequence": "CAGCAACG", "PBM E-score": 0.247},
      {"sequence": "GGACGACC", "PBM E-score": -0.256},
      {"sequence": "AGCTAGAA", "PBM E-score": -0.0847},
      {"sequence": "AGCTGAGA", "PBM E-score": -0.0837},
      {"sequence": "AAACGTTC", "PBM E-score": 0.0506},
      {"sequence": "ATGGCTCC", "PBM E-score": 0.0184},
      {"sequence": "CCCGGTCG", "PBM E-score": -0.278},
      {"sequence": "CTGATCTA", "PBM E-score": -0.123},
      {"sequence": "ACCGCTCT", "PBM E-score": -0.184},
      {"sequence": "AGCAGCGG", "PBM E-score": 0.0735},
      {"sequence": "CTACCCCA", "PBM E-score": -0.114},
      {"sequence": "AATCGTAA", "PBM E-score": 0.0424}
    ]}
  ]
}
